± gives the standard deviation. The entries are a selection whose mix differs from that of the whole data set.
What follows are sequences tested on MIWI (PIWIL1) piRISC loaded with piRNA #1 (30 nt) (assay: pre-steady-state target cleavage rate (min^-1); MIWI and MILI are mouse PIWI proteins and EfPiwi is from a freshwater sponge; tags in brackets are library labels; higher = faster piRNA-guided slicing of the target). Settings: guide: piRNA #1 5'p-UGAGGUAGUAGGUUGUAUAGUAUCCAGAGG; auxiliary factor: 500 nM mouse GTSF1.
Summary of the method: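 With or without 500 nM GTSF1 partner protein, 1 nM active affinity-purified piRISC carrying one synthetic guide was mixed with 0.1 nM transcribed, DNA-blocked target RNA library in HEPES–potassium acetate buffer at 33 °C for 0–8 or 0–960 min. Uncleaved targets were sequenced and normalised to depth and to weakly complementary targets, three trials were pooled, and k3 was capped at 0.0001 min^-1. The pre-steady-state cleavage rate came from a burst-and-steady-state fit.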

Row | Sequence | pre-steady-state target cleavage rate
1 | GGAGACCAUAGUAUACAACCUACUACGUCA | 0.249 ± 0.031
2 | GGACUGGAUACUAAACAACCAACUACCUCA | 0.087 ± 0.0098
3 | GGACUGGAUACUAUAGAACCUACUACGUCA | 0.0162 ± 0.0043
4 | GGACUGGUUACUAUACUACCUACUACCUCA | 1.09 ± 0.15
5 | GCUCUGGAUACUAUAGAACGUACUACCUCA | 0.154 ± 0.028
6 | GGAGAGGAUACUAUACAUCCUACUACGUCA | 0.0548 ± 0.0098
7 | GCUCUGGAUACUAUACAACCUAGAUCCUCA | 0.156 ± 0.03
8 | GGAGACCAUACUAUACAACCUACUAGGUCA | 0.0129 ± 0.0046
9 | GGAGAGGAUUCUUUACAACCUACUACCUCA | 0.996 ± 0.067
10 | GGAGACCUAUGAAUACAACCUUGAACCUCA | < 0.0001
11 | GGAGACCUAUCUAUACAAGCUACUACGUCA | 0.264 ± 0.019
12 | GGAGUGGAUACUAUACAUCCUACUAGCUCA | 0.132 ± 0.019
13 | GGAGACGAUAGUAUUCAACCUACUACCUCA | 0.619 ± 0.069
14 | GGAGACCUUACUAUACAACCUACUUCCACA | 0.13 ± 0.025
15 | GGACUGGAUUCUAUAGAACCUACUACCUCA | 1.41 ± 0.09
16 | GGUCUGGAUACUAUACUACCAACUACCUCA | 0.0238 ± 0.0053
17 | GGACUGGUUACUAUACAACCUACUAGCUCA | 0.0585 ± 0.015
18 | GGAGAGGAUACUACACAACCUACUACCUCA | 1.41 ± 0.069
19 | CCUCUGGAUACUAUACAAGGAACUACCUCA | 0.0074 ± 0.0029
20 | GGUCUGGAUACAAUACAACCUACUACGUCA | 0.783 ± 0.068

Row | Sequence | pre-steady-state target cleavage rate
21 | GGAGACCUAACUAUACAACCUACUACCUAA | 0.955 ± 0.1
22 | GGAGACCUAUGAUAUGUUCCUACCUACCUCA | < 0.0001
23 | GCUCAGGAUACUAUUCAACCUACUACCUCA | 2.09 ± 0.13
24 | GGACUGGAUAACUAUACAACCUACUACCUCA | 1.11 ± 0.087
25 | GGACUCGAUACUUUACAACCUACUACCUCA | 1.57 ± 0.14
26 | GGAGACCUAUGAUAUGUACCUACUACCUGCA | < 0.0001
27 | GGUCUGGAUUCUAUACAACCUACUACCUCA | 1.77 ± 0.098
28 | GGUCUGGAUACUAUACAACGUACUACCACA | 0.685 ± 0.061
29 | GCUCUGGAUUCUAUACAACCUACUUCCUCA | 0.352 ± 0.022
30 | GGACUGGAUUCUAUACAACCUACUACCUGA | 0.628 ± 0.13
31 | GGAGACCUAUAUAUACAACCUACUACCUCA | 0.175 ± 0.021
32 | GGAGACCUAUCUAUUACAACCUACUACCUCA | 0.105 ± 0.02
33 | GGAGAGGAUACUAACAACCUACUACCUCA | 1.23 ± 0.068
34 | GGAGACGAUAGUAUACAAGCUACUACCUCA | 0.577 ± 0.04
35 | GGAGACCUAACUAUACAACCUACUCCCUCA | 0.463 ± 0.06
36 | GGUCUGGAUACUGUACAACCUACUACCUCA | 0.683 ± 0.052
37 | GGAGAGGAUACUUUUCAACCUACUACCUCA | 1.18 ± 0.076
38 | GGAGUGGAUUCUAUACAACCUACUACCUCA | 1.63 ± 0.096
39 | GGACUGGAUAGCUAUACAACCUACUACCUCA | 0.71 ± 0.072
40 | GGACUGGAACUAUACAACCUACUACCUCA | 1.49 ± 0.12

Reference: the supplement of paper PMC10338343
